# Measured values as given in the supplement of paper PMC11417369.
# ± gives the standard deviation of the averaged measurements. The list shows a part of the results.
# Test system: PfAP2-EXP AP2 domain (GST-tagged)
# Experiment: gcPBM binding intensity (ln(normalized median fluorescence intensity)); higher = stronger DNA binding
# In short: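 Binding intensity is the highest Masliner-normalised natural-log median intensity over replicate spots in either probe orientation. To obtain it, GST-tagged P. falciparum DNA-binding domains made in E. coli were incubated for 1 h on an Agilent 4 × 180k array of primer-extended double-stranded 36-bp intergenic genomic probes plus negative controls. Detection used Alexa488 anti-GST antibody with scanning at 488 nm.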
row,Sequence,gcPBM binding intensity (ln)
1,AATGAAAAGGAACATACACACCCCATATAAATATAT [CACACA_site7588],9.34 ± 0.81
2,TCATATTTTACATATGCATGTTAATAATACAAACAT [TGCATGCA_site994],8.47 ± 0.41
3,TTTTTTTCGTATATTACACACTATAAATAGAAATTA [CACACA_site6278],8.55 ± 0.45
4,GTATAACAACTGATAAAAGAAAAAAAATTTATTATT [CACACA_negctrl_site377],8.32 ± 0.41
5,ATAATATTTTTAAACTGTACTTTTATAAACACTTAT [XGTACX_site2625],8.55 ± 0.39
6,ATTTATTTATGTATTTGTACGTATATATTTATGCAT [XGTACX_site5218],8.75 ± 0.37
7,ATATTATGTCTACATAAACACACATATATATAAAAA [CACACA_site7976],8.62 ± 0.48
8,AATAAATATTCATTTTGTACATATTTTTCGTATATG [XGTACX_site6104],8.54 ± 0.39
9,TTACCATAAGTATGTGGTACACTTTAAATGAAGATA [XGTACX_site6972],8.46 ± 0.42
10,AATAGTTATAAATATAAATATATATATATATATATA [CACACA_negctrl_site414],10 ± 0.29
11,TATATATATAAATACACACACACCCTAAAAATATAT [CACACA_site4970],8.99 ± 0.57
12,TTAACATCAAAATATGCACACAAACAATTAGCGGTA [CACACA_site8801],8.69 ± 0.44
13,AAAACTATAATAAAAGGTACACATTTATTTTTTTCT [XGTACX_site730],8.32 ± 0.3
14,TATATTATTCATTAAGCACACATTATTTTTATAATA [CACACA_site6056],8.31 ± 0.29
15,ATGTTTGATGCTACACGTACACACCTTGCAAATATT [XGTACX_site1644],9.07 ± 0.38
16,TTTTTTTTTTTTTTTACACACACAAAATATTATATG [CACACA_site2471],8.44 ± 0.49
17,TATTATTTACCTTGCTAGTTCGTTCCAAATTTTATG [XGTACX_negctrl_site197],8.93 ± 0.52
18,AAAACAAATTTTAATGAGAATATGAAAAAAAAATAT [XGTACX_negctrl_site268],8.72 ± 0.45
19,CACATTATGTATCATACACACAAATAAATATAGAAT [CACACA_site609],8.81 ± 0.38
20,TATTCTAATATATGCATACACACAAATGTGAATATA [CACACA_site2143],8.47 ± 0.36
21,TTTATATGTATTAAGTGTACACATATAATGTGTTTT [XGTACX_site4890],8.46 ± 0.24
22,CAAAATTGAAGGAACACACATACATATATATATATG [CACACA_site179],8.65 ± 0.44

row,Sequence,gcPBM binding intensity (ln)
1,TAAAAAAGAACAGAAACACACAAATAAAATAAAATT [CACACA_site1758],8.89 ± 0.45
2,ATTTTAAATATTTGTGGTACCCCTTTTTTGTAACAA [XGTACX_site5590],8.86 ± 0.42
3,CTTTGTGGTATAGATACACACTATATTAATATGAAC [CACACA_site7081],8.55 ± 0.44
4,AAATAAAAAGGGTGCACACAAAAATATATATATATA [CACACA_site1728],10.5 ± 0.6
5,AAATAGTTGTTATGGGTGCAAACCACATATATATAA [GTGCAC_site9428],8.64 ± 0.099
6,AATATATACATACATACATGCACATATATATATATA [TGCATGCA_site393],9.82 ± 0.42
7,ATTTGTTTAAGTCACGAACACACATATATCATCAAT [CACACA_site985],8.62 ± 0.33
8,ATTATTTACCACAACACACAAATATTTACCAATCAT [CACACA_site5472],8.7 ± 0.41
9,AGGCCTTTTAGTATTTCACACACGTAAATGTGTATA [CACACA_site8284],8.6 ± 0.55
10,AATATAATATATTGCACACAAAAAGTGAATTATTCT [CACACA_site1684],8.75 ± 0.3
11,GTTTATTAGGAATTATGTACACAGTTTTATAAAGAA [XGTACX_site2994],8.68 ± 0.18
12,ACATTGAATAAATAATGTACATATATAATATATATT [XGTACX_site95],8.34 ± 0.23
13,AAATTAAATGTAAGCACACATAAATTATACGCATAT [CACACA_site3335],8.6 ± 0.38
14,TTGCAGTATTTCGGAACACACAAACATAAATATGTA [CACACA_site5307],8.37 ± 0.39
15,TATAATAATCCACAAGCACACACACCCACATATATA [CACACA_site8343],8.78 ± 0.39
16,AGTAGTCTGGAGAAAAGTACACAGTATCTGGTAGCT [XGTACX_site2544],8.41 ± 0.42
17,GATCTTTCACATATATATATAAAGGATATTATGGTA [CACACA_negctrl_site522],8.37 ± 0.4
18,AAATATTATTCATTTTGTACGTATAATTTTTAATGA [XGTACX_site3509],8.71 ± 0.32
19,TTATTACACAAATGGTGTACTTTTGAGGAACCAAAA [XGTACX_site4279],8.31 ± 0.3
20,ATTATATTATATTATACATGCATAATATTATATAAA [TGCATGCA_site647],8.46 ± 0.092
21,TTTTCATTCTTTTCCTTTGATTTACAATAGTATATT [GTGCAC_negctrl_site687],8.65 ± 0.53
22,TCATTATATTATTCTTGTACTTATATCCTTTTTTGA [XGTACX_site5320],8.74 ± 0.3
